± gives the standard deviation of the averaged measurements. This is one part of the list.

In the assay the test system is PfAP2-I AP2 domain 3 (GST-tagged). The assay can be described thus: gcPBM binding intensity (ln(normalized median fluorescence intensity)); higher = stronger DNA binding. In outline:
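Binding of GST-tagged P. falciparum DNA-binding domains, expressed in E. coli and used at about 25 μg on average, was carried out for 1 h in 1× PBS containing 1% milk, 0.2 mg/ml BSA, 0.5% salmon testes DNA and 0.03% Triton X-100. The target was an Agilent 4 × 180k array of primer-extended double-stranded 36-bp intergenic genomic probes plus negative controls, read with Alexa488 anti-GST antibody at 488 nm. Binding intensity is the highest Masliner-normalised natural-log median intensity across replicate spots of either probe orientation.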
For “ATAATTATATTTAGTGGTACTACTTTTGATAATTAG [XGTACX_site6562]”, the “gcPBM binding intensity (ln)” value came to 7.61 ± 0.44.

For the sequence “TATAAGTGCCGTTATACACACGTTATATAAATATTA [CACACA_site4401]”, the “gcPBM binding intensity (ln)” value worked out at 8.31 ± 0.11.

“ATCAAAAGAAGACACACACACATACCTATAAATATA [CACACA_site7736]”: the “gcPBM binding intensity (ln)” value turned out to be 7.86 ± 0.45.

For the sequence “AATAGTTATTCCAGGTGTACATAACATATAATTTAC [XGTACX_site1340]”, the “gcPBM binding intensity (ln)” value stood at 7.95 ± 0.64.

As for “TTATTATTATTACTTACGCACACTTTTTTTTTTATT [CACACA_site411]”, the “gcPBM binding intensity (ln)” value turned out to be 8.66 ± 0.52.

On to GACAATTATATGTAGGTGCATATACAAATTTTTTAA, for which the “gcPBM binding intensity (ln)” value came out at 10.4 ± 0.57.

For “ATAGGATATTATTCCTGTACATATATATATATATAT [XGTACX_site2108]”, the “gcPBM binding intensity (ln)” value was found to be 9.12 ± 0.47.

On to “ATAAAAAATATCACATAAAATAAAAAAAGAAAGGAT [XGTACX_negctrl_site294]”, for which the “gcPBM binding intensity (ln)” value was 8.18 ± 0.58.

As to “ATATATAAAAATAAATGTACATATTCATATGATGAT [XGTACX_site3411]”, the “gcPBM binding intensity (ln)” value was 7.75 ± 0.41.

Take “TATATATATACAGTAGTGCATATATTTAAAATATAT [GTGCAC_site9999]”: the “gcPBM binding intensity (ln)” value came to 10.3 ± 0.29.

With “TATATATAAAAATATACACACTGTATTATTGTAATA [CACACA_site5959]”, the “gcPBM binding intensity (ln)” value was found to be 7.51 ± 0.38.

On to “ATATAAGTATATCTATGTACATACAATATAAATGTA [XGTACX_site2153]”, for which the “gcPBM binding intensity (ln)” value turned out to be 7.72 ± 0.34.

Regarding “TATATACATACATATTGTACTTATAAAGATTAATTT [XGTACX_site2203]”, the “gcPBM binding intensity (ln)” value was 7.59 ± 0.22.

Take “ATAACGAACACTATTACACACATACATACATATGTA [CACACA_site5092]”: the “gcPBM binding intensity (ln)” value worked out at 8.12 ± 0.5.

“AAAAAAAAAAAAAACACACACACATAGACCTCCAAT [CACACA_site3563]”: the “gcPBM binding intensity (ln)” value was 8.37 ± 0.69.

On to “ATATATATATATATATGTACATACAATTATATTCTC [XGTACX_site1133]”, for which the “gcPBM binding intensity (ln)” value turned out to be 9.53 ± 0.47.

With “AAAAATCATTTAAGAACACACAAATATTTCCATTAA [CACACA_site1488]”, the “gcPBM binding intensity (ln)” value came to 7.37 ± 0.69.

Take “TACATAAATTTTAATACATGCAAATAAAATATATAA [TGCATGCA_site131]”: the “gcPBM binding intensity (ln)” value was 8.29 ± 0.79.

“AATCTTCTTAATTGTAGTACACAATTTATAAACAAA [XGTACX_site8706]”: the “gcPBM binding intensity (ln)” value was found to be 8.18 ± 0.17.

As to “AGGAGGATAGTTCACAGTACCCAGTAACTCTACGGA [XGTACX_site1997]”, the “gcPBM binding intensity (ln)” value came to 7.44 ± 0.62.

Turning to “GCATATATGGATATATAGGTATATATAAATGCAATA [GTGCAC_negctrl_site24]”, the “gcPBM binding intensity (ln)” value is 7.82 ± 0.71.

In the case of “CCTCTCATTTTATATAGTACATATTTCAAAAAAAAA [XGTACX_site488]”, the “gcPBM binding intensity (ln)” value is 7.96 ± 0.36.

For “GCATATTTTCCCTGTGAATAAAGTTTTTTTTTTTAT [XGTACX_negctrl_site87]”, the “gcPBM binding intensity (ln)” value was 7.76 ± 0.93.

On to “ATATAAAAAAAAAATTGTACAAAAATATATACATAT [XGTACX_site469]”, for which the “gcPBM binding intensity (ln)” value turned out to be 7.67 ± 0.48.

Take “TATAAAGATATAAATGCACACGTATTAAAAAAAAAA [CACACA_site8223]”: the “gcPBM binding intensity (ln)” value was determined as 9.47 ± 0.17.

For the sequence “TCTAATACACAATGTTGTACATATTAATATATATGT [XGTACX_site2931]”, the “gcPBM binding intensity (ln)” value was 7.91 ± 0.38.

For “ATCATTCTTAAACCGTGTACTTATTATTTTTTTTTT [XGTACX_site2798]”, the “gcPBM binding intensity (ln)” value is 8.18 ± 0.52.

Regarding “AAAATACACGATAGTTGTACATTAAATGTATACAAT [XGTACX_site360]”, the “gcPBM binding intensity (ln)” value is 7.74 ± 0.45.

On to “CATCCGTTGATATATGCATGCATATTGTTATTACCA [TGCATGCA_site868]”, for which the “gcPBM binding intensity (ln)” value came to 7.96 ± 0.88.

Regarding “AAATGACTATATAAAAGTACTAGAAAGTATAAATAT [XGTACX_site944]”, the “gcPBM binding intensity (ln)” value is 7.75 ± 0.59.

Consider “AAAAATAGAGCAGCTCTCATATTTTTATGTGCAATA [CACACA_negctrl_site837]”, for which the “gcPBM binding intensity (ln)” value is 8.28 ± 0.57.

Consider “ACAAAAATATTTGTAAAAAGAAATATAAATAAATAA [TGCATGCA_negctrl_site357]”, for which the “gcPBM binding intensity (ln)” value was determined as 7.61 ± 0.74.

As to “TATTACACACAATATTGTACACATAGGAAAAATATT [XGTACX_site1726]”, the “gcPBM binding intensity (ln)” value amounted to 8.12 ± 0.4.

In the case of “GCATTTATGAAAAATGTACACACATCAAATGCTTAT [CACACA_site9347]”, the “gcPBM binding intensity (ln)” value was found to be 7.74 ± 0.47.

Consider “AGGATATATTATATGTACACACACATATAAGGGATT [GTGCAC_negctrl_site47]”, for which the “gcPBM binding intensity (ln)” value was 7.96 ± 0.67.

Consider “TATTTTTTACATTCGTGTACGCATTTTTGTGAATTT [XGTACX_site5339]”, for which the “gcPBM binding intensity (ln)” value was 7.99 ± 0.6.

Consider “TAATTGTAGACATGCACACACAAATATTATATATGT [CACACA_site845]”, for which the “gcPBM binding intensity (ln)” value was 8.12 ± 0.54.

With “TAATTTTTTTTAAACACACACATTACATTCAAAAAT [CACACA_site127]”, the “gcPBM binding intensity (ln)” value was 7.8 ± 0.47.

In the case of “TTCACTAATAAATACGCACACATATACATATATATA [CACACA_site1383]”, the “gcPBM binding intensity (ln)” value was 8.57 ± 0.6.

“TTTCAAATATATATAGCACACAAGGTATAATATAAA [CACACA_site877]”: the “gcPBM binding intensity (ln)” value came out at 8.74 ± 0.085.

With “TTTTAATTAGTACAAACACACATATACACCCAAAAA [CACACA_site5422]”, the “gcPBM binding intensity (ln)” value turned out to be 8.64 ± 0.26.

For the sequence “ATATAAAAAAGGGAGGTAAATGAATGTGAAACCCAA [GTGCAC_negctrl_site359]”, the “gcPBM binding intensity (ln)” value was determined as 7.84 ± 0.76.

Consider “CTAATATAGGTATGCACACACAATATGTACATATTT [CACACA_site7558]”, for which the “gcPBM binding intensity (ln)” value amounted to 8.41 ± 0.43.

Take “AAGGTATAGAAACACACACACGTGAATATAGTTTAA [CACACA_site5109]”: the “gcPBM binding intensity (ln)” value was determined as 7.69 ± 0.52.

These data come from the supplement of paper PMC11417369.
